Measured values as given in PubChem BioAssay AID485294 (National Center for Advancing Translational Sciences (NCATS), 2010).
In all, about 370,000 compounds went through this assay and about 150 (0.041%) were called active. This list was built around the results that the source calls inconclusive (neither active nor inactive); the mix of calls is not that of the screen. Calls come from the whole dose curve; as a rule, active = well fitted inhibition curve with a large enough effect; inconclusive = small, poorly fitted or top-dose-only effect; inactive = flat fitted curve, though single readings scatter. Potencies of inconclusive entries are left out as doubtful fits.

Each compound was assayed against Beta-lactamase (Escherichia coli (strain K12)) (UniProt P00811) (assay: qHTS Inhibitors of AmpC Beta-Lactamase (assay with detergent)). Details: AmpC hydrolysis of nitrocefin, absorbance 480 nm, 0.01% Triton; activity change, negative = inhibition: at 114 µM (top of the series).
Chain of UniProt P00811 (P00811 whole entry, looked up): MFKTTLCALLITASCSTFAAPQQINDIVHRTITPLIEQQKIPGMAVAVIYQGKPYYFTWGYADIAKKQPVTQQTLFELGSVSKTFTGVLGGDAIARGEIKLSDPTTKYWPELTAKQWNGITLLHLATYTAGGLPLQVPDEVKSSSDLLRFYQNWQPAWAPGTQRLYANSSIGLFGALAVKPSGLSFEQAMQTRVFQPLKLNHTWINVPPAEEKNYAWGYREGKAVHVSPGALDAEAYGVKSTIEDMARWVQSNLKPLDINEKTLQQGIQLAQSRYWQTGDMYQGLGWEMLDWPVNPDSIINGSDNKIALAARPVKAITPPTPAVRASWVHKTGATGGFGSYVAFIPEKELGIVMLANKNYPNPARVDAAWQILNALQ
Procedure, shortened: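 AmpC (5.3 nM in the dispensed reagent) in 20 mM phosphate pH 7.0 with 0.01% (detergent screen) or 0.0001% Triton X-100 was preincubated with compounds for 15 min at room temperature. Nitrocefin was then added from an 800 uM solution, and hydrolysis was followed at 480 nm.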
Note: nearly all actives have a fitted effect of over 25% in size.
Potency is the fitted concentration of half-maximal effect; tags give direction and shape of the fitted curve.
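Throughout, for activity change, negative = inhibition: 0% = no-compound wells and -100% = no-enzyme wells.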

Row | SMILES | Potency | activity change, negative = inhibition
1 | CC(=O)Nc1cccc(NC(=O)C(=O)NCC(c2ccco2)N2CCc3ccccc3C2)c1 (configuration not stated) | inconclusive [inhibitor, full curve, poor fit] | –
2 | O=C(NNC(=O)c1ccccc1-n1cccc1)c1ccc(Cl)cc1 | inconclusive [inhibitor, full curve, poor fit] | –
3 | CCN1CCN(C(=O)/C=C/c2ccc(C)o2)CC1 | inconclusive [inhibitor, single point] | –
4 | O=C(C#Cc1ccccc1)c1ccc([N+](=O)[O-])cc1 | inconclusive [inhibitor, full curve, poor fit] | –
5 | O=C(Nc1ccncc1)c1cc(S(=O)(=O)N2CCCCC2)ccc1Cl | inconclusive [inhibitor, full curve, poor fit] | –
6 | COc1cc(NC(=O)c2cccnc2)c(Cl)cc1NC(=O)c1ccccc1 | inconclusive [inhibitor, full curve, poor fit] | –
7 | Fc1ccc(-c2cc3ncc4c(n3n2)-c2cc(Cl)ccc2OC4)cc1 | – | inactive: 0.934%
8 | COc1ccc(C(=O)NC2CCCc3c2cnn3-c2cc(F)cc(F)c2)c(OC)c1OC (configuration not stated) | inconclusive [inhibitor, full curve, poor fit] | –
9 | CCC(C)(C)NCC(=O)Nc1ccc(OC(F)(F)F)cc1 | – | inactive: -10%
10 | CC1=C([N+](=O)[O-])C(c2ccc3c(c2)OCO3)N(C)C(=O)N1C (configuration not stated) | inconclusive [inhibitor, partial curve, poor fit] | –
11 | COC(=O)c1c(NC(=O)COC(=O)CC(NC(C)=O)c2ccccc2)sc(C)c1C (configuration not stated) | inconclusive [inhibitor, single point] | –
12 | Cc1nn(C)c(Oc2ccccc2)c1CCNC(=O)CCl | – | inactive: 2.69%
13 | Cc1ccccc1C(N)c1ccncc1 (configuration not stated) | inconclusive [inhibitor, partial curve, poor fit] | –
14 | Cc1ccc(C(=O)Nc2nnc(-c3ccc(C(C)(C)C)cc3)s2)cc1 | – | inactive: -8.12%
15 | Cc1cccn2c(=O)nc(SCC(=O)NCc3ccccc3Cl)nc12 | inconclusive [inhibitor, partial curve] | –
16 | CCOC(=O)C1CCN(C(=O)COc2ccc(S(=O)(=O)NC(C)C)cc2Cl)CC1 | inconclusive [inhibitor, partial curve, poor fit] | –
17 | Cc1nc(NC(=O)c2ccc(-c3cc4ccccc4oc3=O)cc2)ccc1Br | inconclusive [inhibitor, partial curve, poor fit] | –
18 | COc1ccc2c(c1)/C(=C/c1cnc[nH]1)C(=O)N2 | inconclusive [inhibitor, single point] | –
19 | CN1CCN(C(=O)CC2(CC(=O)O)CCCC2)CC1 | inconclusive [inhibitor, partial curve] | –
20 | CCOc1c(C(N)=O)cc([N+](=O)[O-])cc1[N+](=O)[O-] | inconclusive [inhibitor, full curve, poor fit] | –
21 | COc1ccc(C)cc1NC(=O)C1CCN(C(=O)c2ccco2)CC1 | inconclusive [inhibitor, partial curve, poor fit] | –

Row | SMILES | Potency | activity change, negative = inhibition
22 | COc1cc(CN(C(=O)c2ccc(OC(C)C)cc2)c2ccccn2)cc(OC)c1OC | – | inactive: -1.66%
23 | CC1CCN(S(=O)(=O)c2cn(C)c(=O)n(C)c2=O)CC1 | inconclusive [inhibitor, full curve] | –
24 | CCCC(=O)C1=C(O)C(C(=O)OC)C(C)(C)CC1=NC(C)C (configuration not stated) | inconclusive [inhibitor, full curve, poor fit] | –
25 | Nc1c(C(=O)Nc2cccc(F)c2)nnn1-c1ccc2c(c1)OCCO2 | – | inactive: -4.72%
26 | O=C(CSc1nc2ccccc2n1CCc1ccccc1)NC1CCS(=O)(=O)C1 (configuration not stated) | inconclusive [inhibitor, single point] | –
27 | CCCCOC(=O)CCc1n[nH]c(=O)[nH]c1=O | inconclusive [inhibitor, full curve] | –
28 | Cc1ccc(C(=O)Nc2ccccn2)cc1S(=O)(=O)N1CCOCC1 | – | inactive: 0%
29 | Cc1cc(C)c(S(=O)(=O)N2CCOC2CNC(=O)C(=O)NCCCN2CCCC2=O)c(C)c1 (configuration not stated) | inconclusive [inhibitor, single point] | –
30 | Cc1cc(C)nc(N2Cc3ccccc3C2=N)n1 | – | inactive: 5.2%
31 | Brc1cccc(CNCC2CCCO2)c1 (configuration not stated) | inconclusive [inhibitor, partial curve, poor fit] | –
32 | CNS(=O)(=O)c1cccc(C(=O)OCc2csc(-c3ccccc3)n2)c1 | inconclusive [inhibitor, full curve, poor fit] | –
33 | CN1CCN(S(=O)(=O)c2cccc(C(=O)NC3(C)CCS(=O)(=O)C3)c2)CC1 (configuration not stated) | inconclusive [inhibitor, full curve, poor fit] | –
34 | CCCn1nc2cc(C(=O)NCc3ccc(OC)cc3)ccc2c1OCC | inconclusive [inhibitor, partial curve, poor fit] | –
35 | COc1ccccc1NC(=O)c1cc2c(=O)n(Cc3cccs3)ccc2nc1C | – | inactive: -7.1%
36 | CCOC(=O)c1cc(C#N)c(SC(C)C(=O)NC2CCCCC2)nc1C (configuration not stated) | – | inactive: -9.19%
37 | O=C(NCc1ccccc1)c1cc[n+](Cc2ccccc2)cc1 | inconclusive [inhibitor, full curve, poor fit] | –
38 | Cc1cccc(NC(=O)CCCSc2nc3ccccc3[nH]2)c1 | inconclusive [inhibitor, partial curve] | –
39 | CCOC(=O)c1[nH]cnc1C(=O)Nc1ccncc1 | inconclusive [inhibitor, full curve, poor fit] | –
40 | CC(Sc1nc2cc(Cl)ccc2s1)C(=O)Nc1cccc(S(=O)(=O)N2CCOCC2)c1 (configuration not stated) | – | inactive: -0.413%
41 | CCOc1ccc2[nH]c(=O)c(CN(Cc3ccccc3OC)C(=O)c3ccccc3)cc2c1 | inconclusive [inhibitor, single point] | –
42 | CCC(=O)Nc1cc2c3c(c1)CCN3C(=O)CC2 | inconclusive [inhibitor, full curve, poor fit] | –
